# In the supplement of paper PMC8728848:
# This is one part of the list.
# B1: HPA (Helix pomatia), Q2F1K8 (protein)
# chain: MQAFYSGLLLLCVVAFAAAQRVQSGKIDCGNDAGWAKVPSDDPGRDNTRELAKNITFASPYCRPPVVLLSITQLDVEQSQNLRVIARLYSVSPTGFKASCYTWHNTKVYSMSISWISIENY
# Columns and labels:
# Experiment in all cases: glycan array binding signal (z-score within array); higher = stronger binding
# Details in all cases: glycan notation: IUPAC condensed, linker removed
# [1] = biological target: Fuc(a1-2)[GalNAc(a1-3)]Gal(b1-3)GalNAc(b1-3)Gal(a1-4)Gal(b1-4)Glc
# Outline: (§1)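 Glycan array data were curated from 3228 arrays in the Consortium for Functional Glycomics database and kept only where the protein sequence was available. Glycan names were converted to IUPAC-condensed notation, and columns mapping to the same glycan were averaged. The binding signal is a within-array Z-score, averaged across arrays of the same protein sequence at different concentrations or buffers and across linkers. Negative Z-scores can be read as non-binding.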
# [2] = biological target: Fuc(a1-2)[GalNAc(a1-3)]Gal(b1-3)GlcNAc
# Outline: as §1
# [3] = biological target: Fuc(a1-2)[GalNAc(a1-3)]Gal(b1-3)GlcNAc(b1-2)Man(a1-3)[Fuc(a1-2)[GalNAc(a1-3)]Gal(b1-3)GlcNAc(b1-2)Man(a1-6)]Man(b1-4)GlcNAc(b1-4)GlcNAc
# Outline: as §1
# [4] = biological target: Fuc(a1-2)[GalNAc(a1-3)]Gal(b1-3)GlcNAc(b1-2)Man(a1-3)[Fuc(a1-2)[GalNAc(a1-3)]Gal(b1-3)GlcNAc(b1-2)Man(a1-6)]Man(b1-4)GlcNAc(b1-4)[Fuc(a1-6)]GlcNAc
# Outline: as §1
# [5] = biological target: Fuc(a1-2)[GalNAc(a1-3)]Gal(b1-3)GlcNAc(b1-3)GalNAc
# Outline: as §1
# [6] = biological target: Fuc(a1-2)[GalNAc(a1-3)]Gal(b1-3)GlcNAc(b1-6)GalNAc
# Outline: as §1
# [7] = biological target: Fuc(a1-2)[GalNAc(a1-3)]Gal(b1-4)Glc
# Outline: as §1
# [8] = biological target: Fuc(a1-2)[GalNAc(a1-3)]Gal(b1-4)GlcNAc
# Outline: as §1
# [9] = biological target: Fuc(a1-2)[GalNAc(a1-3)]Gal(b1-4)GlcNAc(b1-2)Man
# Outline: as §1
# [10] = biological target: Fuc(a1-2)[GalNAc(a1-3)]Gal(b1-4)GlcNAc(b1-2)Man(a1-3)[Fuc(a1-2)[GalNAc(a1-3)]Gal(b1-4)GlcNAc(b1-2)Man(a1-6)]Man(b1-4)GlcNAc(b1-4)GlcNAc
# Outline: as §1
# [11] = biological target: Fuc(a1-2)[GalNAc(a1-3)]Gal(b1-4)GlcNAc(b1-2)Man(a1-3)[Fuc(a1-2)[GalNAc(a1-3)]Gal(b1-4)GlcNAc(b1-2)Man(a1-6)]Man(b1-4)GlcNAc(b1-4)[Fuc(a1-6)]GlcNAc
# Outline: as §1
# [12] = biological target: Fuc(a1-2)[GalNAc(a1-3)]Gal(b1-4)GlcNAc(b1-2)Man(a1-3)[GalNAc(a1-3)[Fuc(a1-2)]Gal(b1-4)GlcNAc(b1-2)Man(a1-6)]Man(b1-4)GlcNAc(b1-4)GlcNAc
# Outline: as §1
# [13] = biological target: Fuc(a1-2)[GalNAc(a1-3)]Gal(b1-4)GlcNAc(b1-3)Gal(b1-4)GlcNAc
# Outline: as §1
# [14] = biological target: Fuc(a1-2)[GalNAc(a1-3)]Gal(b1-4)GlcNAc(b1-3)Gal(b1-4)GlcNAc(b1-3)Gal(b1-4)GlcNAc
# Outline: as §1
# [15] = biological target: Fuc(a1-2)[GalNAc(a1-3)]Gal(b1-4)GlcNAc(b1-3)GalNAc
# Outline: as §1
# [16] = biological target: Fuc(a1-2)[GalNAc(a1-3)]Gal(b1-4)GlcNAc(b1-3)[Fuc(a1-2)[GalNAc(a1-3)]Gal(b1-4)GlcNAc(b1-6)]GalNAc
# Outline: as §1
# [17] = biological target: Fuc(a1-2)[GalNAc(a1-3)]Gal(b1-4)GlcNAc(b1-6)GalNAc
# Outline: as §1
# [18] = biological target: Fuc(a1-2)[GalNAc(a1-3)]Gal(b1-4)[Fuc(a1-3)]GlcNAc
# Outline: as §1
# [19] = biological target: Fuc(a1-2)[GalNAc(a1-3)]Gal(b1-4)[Fuc(a1-3)]GlcNAc(b1-3)GalNAc
# Outline: as §1
# [20] = biological target: Fuc(a1-2)[GalNAc(a1-4)]Gal(b1-4)GlcNAc
# Outline: as §1
# [21] = biological target: Fuc(a1-2)[GalNAc(b1-3)]Gal
# Outline: as §1
# Fuc(a1-3)GlcNAc = biological target: Fuc(a1-3)GlcNAc
# Outline: as §1
# [22] = biological target: Fuc(a1-3)[Gal(b1-4)]Glc6S
# Outline: as §1
# [23] = biological target: Fuc(a1-3)[Gal(b1-4)]GlcNAc
# Outline: as §1
# [24] = biological target: Fuc(a1-3)[Gal(b1-4)]GlcNAc(b1-2)Man
# Outline: as §1
# [25] = biological target: Fuc(a1-3)[Gal(b1-4)]GlcNAc(b1-2)Man(a1-3)[Fuc(a1-3)[Gal(b1-4)]GlcNAc(b1-2)Man(a1-6)]Man(b1-4)GlcNAc(b1-4)GlcNAc
# Outline: as §1
# [26] = biological target: Fuc(a1-3)[Gal(b1-4)]GlcNAc(b1-2)Man(a1-3)[Fuc(a1-3)[Gal(b1-4)]GlcNAc(b1-2)Man(a1-6)]Man(b1-4)GlcNAc(b1-4)[Fuc(a1-6)]GlcNAc
# Outline: as §1
# [27] = biological target: Fuc(a1-3)[Gal(b1-4)]GlcNAc(b1-2)Man(a1-6)[Gal(b1-4)GlcNAc(b1-2)Man(a1-3)]Man(b1-4)GlcNAc(b1-4)GlcNAc
# Outline: as §1
# [28] = biological target: Fuc(a1-3)[Gal(b1-4)]GlcNAc(b1-3)Gal(b1-3)[Fuc(a1-4)]GlcNAc
# Outline: as §1
# [29] = biological target: Fuc(a1-3)[Gal(b1-4)]GlcNAc(b1-3)Gal(b1-4)[Fuc(a1-3)]GlcNAc
# Outline: as §1
# [30] = biological target: Fuc(a1-3)[Gal(b1-4)]GlcNAc(b1-3)Gal(b1-4)[Fuc(a1-3)]GlcNAc(b1-3)Gal(b1-4)[Fuc(a1-3)]GlcNAc
# Outline: as §1
# [31] = biological target: Fuc(a1-3)[Gal(b1-4)]GlcNAc(b1-3)GalNAc
# Outline: as §1
# [32] = biological target: Fuc(a1-3)[Gal(b1-4)]GlcNAc(b1-4)Gal(b1-4)[Fuc(a1-3)]GlcNAc
# Outline: as §1
# [33] = biological target: Fuc(a1-3)[Gal(b1-4)]GlcNAc(b1-4)Gal(b1-4)[Fuc(a1-3)]GlcNAc(b1-4)Gal(b1-4)[Fuc(a1-3)]GlcNAc
# Outline: as §1
# [34] = biological target: Fuc(a1-3)[Gal(b1-4)]GlcNAc(b1-6)GalNAc
# Outline: as §1
# [35] = biological target: Fuc(a1-3)[Gal(b1-4)]GlcNAc(b1-6)[Gal(b1-3)GlcNAc(b1-3)]Gal(b1-4)Glc
# Outline: as §1
# [36] = biological target: Fuc(a1-3)[Gal(b1-4)]GlcNAc6S
# Outline: as §1
# [37] = biological target: Fuc(a1-3)[Gal3S(b1-4)]Glc
# Outline: as §1
# [38] = biological target: Fuc(a1-3)[Gal3S(b1-4)]Glc6S
# Outline: as §1
# [39] = biological target: Fuc(a1-3)[Gal3S(b1-4)]GlcNAc
# Outline: as §1
# [40] = biological target: Fuc(a1-3)[Gal3S(b1-4)]GlcNAc6S
# Outline: as §1
# [41] = biological target: Fuc(a1-3)[GalNAc(b1-4)]GlcNAc
# Outline: as §1
# [42] = biological target: Fuc(a1-3)[GalNAc(b1-4)]GlcNAc6S
# Outline: as §1
# [43] = biological target: Fuc(a1-3)[Neu5Ac(a2-3)]Gal(b1-4)GlcNAc(b1-3)GalNAc
# Outline: as §1
# Fuc(a1-4)GlcNAc = biological target: Fuc(a1-4)GlcNAc
# Outline: as §1
binder,measurement,setting,value
B1,glycan array binding signal (z-score),[1],2.62
same,glycan array binding signal (z-score),[2],1.99
same,glycan array binding signal (z-score),[3],1.88
same,glycan array binding signal (z-score),[4],1.22
same,glycan array binding signal (z-score),[5],0.89
same,glycan array binding signal (z-score),[6],1.32
same,glycan array binding signal (z-score),[7],1.62
same,glycan array binding signal (z-score),[8],1.71
same,glycan array binding signal (z-score),[9],2.55
same,glycan array binding signal (z-score),[10],3.07
same,glycan array binding signal (z-score),[11],1.34
same,glycan array binding signal (z-score),[12],1.09
same,glycan array binding signal (z-score),[13],2.66
same,glycan array binding signal (z-score),[14],3.15
same,glycan array binding signal (z-score),[15],1.45
same,glycan array binding signal (z-score),[16],2.1
same,glycan array binding signal (z-score),[17],1.69
same,glycan array binding signal (z-score),[18],2.43
same,glycan array binding signal (z-score),[19],0.306
same,glycan array binding signal (z-score),[20],2.81
same,glycan array binding signal (z-score),[21],0.461
same,glycan array binding signal (z-score),Fuc(a1-3)GlcNAc,-0.216
same,glycan array binding signal (z-score),[22],0.244
same,glycan array binding signal (z-score),[23],-0.246
same,glycan array binding signal (z-score),[24],-0.096
same,glycan array binding signal (z-score),[25],-0.126
same,glycan array binding signal (z-score),[26],0.051
same,glycan array binding signal (z-score),[27],-0.969
same,glycan array binding signal (z-score),[28],0.004
same,glycan array binding signal (z-score),[29],-0.242
same,glycan array binding signal (z-score),[30],-0.246
same,glycan array binding signal (z-score),[31],0.232
same,glycan array binding signal (z-score),[32],-0.17
same,glycan array binding signal (z-score),[33],-0.09
same,glycan array binding signal (z-score),[34],-0.07
same,glycan array binding signal (z-score),[35],-0.163
same,glycan array binding signal (z-score),[36],0.063
same,glycan array binding signal (z-score),[37],-0.133
same,glycan array binding signal (z-score),[38],-0.93
same,glycan array binding signal (z-score),[39],-0.184
same,glycan array binding signal (z-score),[40],-0.057
same,glycan array binding signal (z-score),[41],-0.145
same,glycan array binding signal (z-score),[42],-0.284
same,glycan array binding signal (z-score),[43],4.26
same,glycan array binding signal (z-score),Fuc(a1-4)GlcNAc,-0.081
